Experimental data: patent publication US10273468B2 (priority 2016, dated 2019)

Tests used:
Test in all cases: microbe, parasite or virus in culture
[1] = tested on: E. coli expressing tet(55); settings: Escherichia coli
[2] = tested on: E. coli expressing tet(51); settings: Escherichia coli
[3] = tested on: E. coli expressing tet(56); settings: Escherichia coli
E. coli empty vector = settings: Escherichia coli
[4] = tested on: E. coli expressing tet(50); settings: Escherichia coli
[5] = tested on: E. coli expressing tet(X); settings: Escherichia coli
[6] = tested on: E. coli expressing tet(56); settings: Escherichia coli, read-out: IC50 (growth, liquid culture), E. coli expressing tet(56)

Structure (SMILES)	MIC [1]	MIC [2]	MIC [3]	MIC (E. coli empty vector)	MIC [4]	MIC [5]	IC50 ([6]; tetracycline with two μg/mL anhydrotetracycline)	IC50 ([6]; tetracycline without anhydrotetracycline)
CN(C)[C@@H]1C(O)=C(C(N)=O)C(=O)[C@@]2(O)C(O)=C3C(=O)c4c(O)ccc(Cl)c4[C@@](C)(O)[C@H]3C[C@@H]12 [chlortetracycline]	256 mg/L (≈ 535 µM)	512 mg/L (≈ 1070 µM)	512 mg/L (≈ 1070 µM)	16 mg/L (≈ 33.4 µM)	256 mg/L (≈ 535 µM)	256 mg/L (≈ 535 µM)		
CN(C)[C@@H]1C(O)=C(C(N)=O)C(=O)[C@@]2(O)C(O)=C3C(=O)c4c(O)cccc4[C@@](C)(O)[C@H]3C[C@@H]12 [tetracycline]							8.27 µg/mL (≈ 18.6 µM)	47.4 µg/mL (≈ 107 µM)

Converted amounts (≈) assume the structure as drawn. Read-outs that look alike come from different tables or passages of the source.
